Data from paper PMC4336329 (PLoS ONE, 2015).
Among all 310,000 compounds or so, about 14,000 (4.5%) showed an effect of 50% or more. The effect is printed as a negative number. This is one part of the list.

Target: human ether-à-go-go-related gene (hERG) potassium channel (human, UniProt Q12809)
Experiment: primary screen, population patch clamp on CHO cells stably expressing hERG
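Also: peak tail current of the secondary pulse compared with the same well before compound.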

Sequence of human ether-à-go-go-related gene (hERG) potassium channel (Q12809 whole entry, looked up): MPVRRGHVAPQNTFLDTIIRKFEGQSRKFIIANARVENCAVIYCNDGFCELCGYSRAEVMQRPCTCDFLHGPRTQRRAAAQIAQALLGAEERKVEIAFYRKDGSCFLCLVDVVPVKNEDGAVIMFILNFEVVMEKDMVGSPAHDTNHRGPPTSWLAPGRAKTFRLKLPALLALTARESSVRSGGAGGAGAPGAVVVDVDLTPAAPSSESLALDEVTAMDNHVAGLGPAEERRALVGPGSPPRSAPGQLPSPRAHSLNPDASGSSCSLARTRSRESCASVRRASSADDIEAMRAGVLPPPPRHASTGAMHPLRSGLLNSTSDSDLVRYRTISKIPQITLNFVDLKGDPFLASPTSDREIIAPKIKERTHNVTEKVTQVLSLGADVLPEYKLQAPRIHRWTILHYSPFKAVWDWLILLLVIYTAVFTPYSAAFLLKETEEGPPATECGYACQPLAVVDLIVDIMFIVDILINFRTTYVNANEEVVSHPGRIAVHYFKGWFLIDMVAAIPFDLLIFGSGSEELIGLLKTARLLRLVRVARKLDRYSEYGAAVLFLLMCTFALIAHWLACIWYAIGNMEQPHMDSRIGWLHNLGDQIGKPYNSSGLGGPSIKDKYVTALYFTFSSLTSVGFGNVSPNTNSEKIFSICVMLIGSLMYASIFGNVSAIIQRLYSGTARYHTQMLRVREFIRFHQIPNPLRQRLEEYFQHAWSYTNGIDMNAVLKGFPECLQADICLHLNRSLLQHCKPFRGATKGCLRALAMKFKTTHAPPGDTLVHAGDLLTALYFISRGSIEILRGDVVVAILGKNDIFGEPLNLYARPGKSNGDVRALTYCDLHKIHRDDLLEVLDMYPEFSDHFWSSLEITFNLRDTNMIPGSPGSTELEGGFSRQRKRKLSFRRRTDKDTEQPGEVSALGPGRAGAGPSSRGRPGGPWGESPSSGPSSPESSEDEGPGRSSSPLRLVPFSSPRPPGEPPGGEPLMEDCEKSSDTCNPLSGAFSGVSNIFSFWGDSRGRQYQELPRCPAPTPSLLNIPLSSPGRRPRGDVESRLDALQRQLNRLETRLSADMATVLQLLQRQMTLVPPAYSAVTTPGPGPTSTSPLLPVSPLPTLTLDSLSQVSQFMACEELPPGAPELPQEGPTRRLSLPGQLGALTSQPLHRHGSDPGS

SMILES | hERG current change (%, negative = inhibition) at 10uM [%]
COc1ccc(C(=O)N/C(=C\c2ccc(Cl)cc2)C(=O)NCC2CCCO2)cc1 (stereo not drawn) | -38
Cc1ccc(CNC(=O)C2CCC(CNS(=O)(=O)c3cccs3)CC2)cc1 (stereo not drawn) | -18.7
CCc1nc2ccccc2c(C(=O)Oc2ccc(C(=O)OC)cc2)c1C | 6.97
CCN(CC)CC(=O)N1c2ccccc2Sc2ccccc21 | 1.42
CC(C)Oc1ccc(Oc2ccc(C(F)(F)F)cn2)cc1 | 10.9
O=C1c2ccccc2C(=O)N1CSc1nnnn1-c1ccccc1 | -3.73
CCOc1ccccc1NC(=O)C(Sc1nnnn1C)c1ccccc1 (stereo not drawn) | -21.2
Cc1cc(C)nc(N2CCN(CC(=O)NCc3ccccc3)CC2)n1 | -6.67
CCOC(=O)c1c(NC(=O)C(C)Sc2nnc(C)c(=O)[nH]2)sc2c1CCCC2 (stereo not drawn) | 18.5
CCC(C)(C)c1ccc2c(c1)C(=O)c1ccccc1C2=O | 4.28
Cn1c(=O)c2c(SCc3c(F)cccc3Cl)nc(CC(C)(C)C)nc2n(C)c1=O | 12.8
CC(NC(=O)C(NS(=O)(=O)c1cccc2nsnc12)C(C)C)c1ccccc1 (stereo not drawn) | -5.01
O=C(/C=C/c1ccc(OCCCF)cc1)Nc1ccnc(-c2cccnc2)n1 | 17
COCCCNC(=O)N1c2ccccc2Sc2ccccc21 | 4.55
CN1CCN(NC(=O)c2cn(-c3ccccc3)nc2-c2cccc(Br)c2)CC1.Cl | -0.973
CCOc1ccc(NC(=O)CN(C)S(=O)(=O)c2cccc3cccnc23)cc1 | -5.17
COc1ccc(NC(=O)N(CCN2CCCC2)Cc2cc3cc(OC)c(OC)cc3[nH]c2=O)cc1 | -4.32
Cn1ncc(SCc2ccccc2)c(Cl)c1=O | 1.64
CNC(=O)CN1C(=O)CSc2ncccc21 | 10.4
O=C(NCC(=O)N1CCCCCCC1)c1ccccc1Cl | 0.569
Cc1ccc(C(=O)NNC(=O)C2CCN(C(=O)OC(C)(C)C)CC2)cc1 | 12.4
CC(C)=CCc1c([C@@H]2CCc3ccc(O)cc3O2)cc2c(c1O)OC(C)(C)C=C2 | 18.1
Cn1c2ccccc2c2nnc(SCC(=O)NC3CC3)nc21 | 21

SMILES | hERG current change (%, negative = inhibition) at 10uM [%]
CCc1ccccc1NC(=S)N(CCN(C)C)C(C)c1ccco1 (stereo not drawn) | -16.5
CCCCN(CCCC)Cc1ccc(C(=O)NNC(=O)Nc2ccc(Cl)cc2)o1 | -33.4
COCCC(=O)N1CCC(C(=O)Nc2ccc(Oc3ccccc3)nc2)CC1 | 17.6
Cn1nccc1NC(=O)CC1(CC(=O)O)CCCCC1 | 3.64
CCOC(=O)N1CCC(NC(=O)Cn2ncc3ccccc32)CC1 | 5.84
CCCCCCCCCCCCN1C/C(=C\C(=O)OCC)c2cc(C(F)(F)F)ccc2S1(=O)=O | 6.83
O=C(COC(=O)Cn1nnc2ccccc21)Nc1ccccc1Br | -1.61
C=CSc1sc(Cl)c(N2CCOCC2)c1[N+](=O)[O-] | 0.0524
CC(C)(C)NC(=S)/N=C(\N)N[N+](=O)[O-] | 9.75
CCCCCCNC(=O)Nc1ccccc1 | 2.08
COc1ccc(S(=O)(=O)NCCC(=O)NC2CCCCCCC2)cc1 | -21.4
O=C1CC(c2ccccc2)CN1 (stereo not drawn) | 17.1
O=C(CC1CC2CCC1C2)NC1CCCCCCC1 (stereo not drawn) | -9.41
CC(C)n1nc(C(=O)Nc2nnc(SCc3c(Cl)cccc3Cl)s2)c2ccccc2c1=O | -5.58
CC(C)N(Cc1cc2ccccc2[nH]c1=O)C(=O)c1cccnc1 | -21.7
O=C(OCc1nnc(-c2ccc(Cl)cc2)o1)C12CC3CC(CC(O)(C3)C1)C2 | -7.27
COc1ccc(NS(=O)(=O)c2ccc(C)c(NC(=O)CN3C(=O)NC4(CCCC4)C3=O)c2)cc1 | -37.8
CC(=O)Nc1cc(C(=O)N2CCc3ccccc3C2)ccc1Sc1ccc(F)cc1 | -55.4
Cc1ccc(OCC(O)CN2CCOCC2)cc1 (stereo not drawn) | 8.2
Cc1ccc(S(=O)(=O)NCCSc2nnnn2-c2ccccc2)cc1 | -24.1
CCCc1nnc(NC(=O)CCC(=O)Nc2ccc(Br)cc2)s1 | 19
Cc1nn(C)cc1/C=N\NC(=O)c1ccc2c(c1)c(C)c(C)n2Cc1ccccc1 | 15.9
N#Cc1cc(Sc2ccccn2)c([N+](=O)[O-])cc1C#N | -18.9

SMILES | hERG current change (%, negative = inhibition) at 10uM [%]
O=c1c(-c2ccc(O)cc2)coc2c([C@@H]3O[C@H](CO)[C@@H](O)[C@H](O)[C@H]3O)c(O)ccc12 | 31.1
COc1ccccc1NC(=O)c1nn(-c2ccccc2)ccc1=O | 0.691
CCCCc1n[nH]c2c1/C(=N/O)CC(c1ccccc1)C2 (stereo not drawn) | 8.46
COC(=O)C1=C(C)NC(=O)CC1c1cccc(Cl)c1Cl (stereo not drawn) | -4.94
O=C(O)C1C2C=CC(C2)C1C(=O)NCCCN1CCCC1=O (stereo not drawn) | 9.28
COc1ccccc1CNC(=O)C1CC(c2ccccc2C(F)(F)F)=NO1 (stereo not drawn) | -3.54
O=C(NCc1ccccc1CN1CCCCC1)c1ccccc1N1CCCC1=O | -5.29
O=c1[nH]c(CN2CCN(CCO)CC2)nc2ccccc12 | 21.5
Cn1c(O)c(C=NCCN2CCOCC2)c(=O)[nH]c1=S | 9.47
Cn1cnc2cc(NC(=O)c3ccco3)ccc21 | 25
CC(C)(C)C(O)/C=C/c1ccc2c(c1)OCO2 (stereo not drawn) | 3.22
CCOC(=O)CN(C(=O)CSc1nnc(-c2ccc(OC)c(OC)c2)o1)c1ccc(F)cc1 | -49.6
Cc1ccccc1-n1c(=O)n(Cc2ccco2)c(=O)c2[nH]cnc21 | 15.6
COCCCNC(=O)/C(C#N)=C/c1cccc(NC(=O)c2ccccc2Cl)c1 | 4.62
Cc1cccc(CNC(=O)c2ccc3c(c2)N(C)CCS3)c1 | -59.4
Cc1nn(Cc2ccc(Cl)cc2Cl)c(C)c1NC(=O)c1ccc(COc2cc(Cl)ccc2Cl)o1 | 8.69
CN(C(=O)c1cccn(Cc2ccccc2)c1=O)c1ccccc1 | 13.3
CC(C)COc1ccc(/C(=N/O)c2ccccc2)cc1 | 11
O=C1CC(=O)N(CCNc2ncc(C(F)(F)F)cc2Cl)C(=O)N1 | 11.9
CCC1S/C(=N/C(=O)NC2CCCCC2)NC1=O (stereo not drawn) | 17.1
CN(C)C(CNC(=O)CCNC(=O)c1ccc(Br)cc1)c1ccco1 (stereo not drawn) | -12.6
O=C(Nc1nnc(-c2ccc(Cl)cc2)o1)c1ccc(N2C(=O)CCC2=O)cc1 | 12.9
O=C(c1cc(-c2cccs2)on1)N1CCOCC1 | -9.61

SMILES | hERG current change (%, negative = inhibition) at 10uM [%]
O=S(=O)(c1ccccc1)N1CCN(c2ccccc2)CC1 | 12
NS(=O)(=O)c1ccc(CCNC(=O)CN2C(=O)c3ccccc3S2(=O)=O)cc1 | 1.3
COc1cc(NC(=O)CCNC(=O)Cn2cnc3ccccc3c2=O)cc(OC)c1OC | 8.38
O=C(c1ccco1)N1CCN(C2CC(=O)N(c3ccc(F)c(Cl)c3)C2=O)CC1 (stereo not drawn) | -14.2
c1ccc2[nH]c(N3CCOCC3)nc2c1 | 8.82
CC(C)CCNc1nc2ccccc2nc1NS(=O)(=O)c1cccs1 | 5.76
CC1CCC2(CC1)NC(=O)N(CC(=O)NCCc1c[nH]c3ccccc13)C2=O (stereo not drawn) | -19.6
Cc1cccc(C(=O)OC(C)C(=O)N2CCc3ccccc3C2)c1C (stereo not drawn) | -33.6
Cc1ccc(S(=O)(=O)c2nc(-c3ccc(F)cc3)oc2N2CCOCC2)cc1 | -45.3
CCN(C(=O)Cn1ccc(C(F)(F)F)n1)c1c(N)n(Cc2ccccc2)c(=O)[nH]c1=O | -5.89
COc1ccc(C)cc1NC(=O)CC(NC(C)=O)c1ccccc1 (stereo not drawn) | 12.9
CC(C)(C)OC(=O)N[C@@H](Cc1c[nH]c2ccccc12)c1nnc(SCC(N)=O)o1 | -3.96
CC(C)C[C@@]12C(=O)N(c3ccc(Br)cc3)C(=O)N1[C@H](c1ccc(Br)cc1)[C@@H]1C(=O)N(C(C)(C)C)C(=O)[C@@H]12 | -3.38
COc1ccc(OCC(=O)Nc2c(C(=O)N3CCN(C)CC3)oc3ccccc23)cc1 | -42
COc1ccc(NC(=O)N2CCCC(c3nc(-c4ccc(OC)cc4)no3)C2)cc1 (stereo not drawn) | -4.38
S=C(Nc1ccccc1)N(CCN1CCOCC1)Cc1cccc(Cl)c1 | 7.59
CCc1c(C)nc(SCc2ccccn2)[nH]c1=O | 13.3
COc1ccc(NC(=S)N(CCN(C)C)C(C)c2ccco2)cc1Cl (stereo not drawn) | -36.3
CC(=O)Oc1ccc(/C=c2\sc3ncnn3c2=O)cc1 | 0.932
CCCOC1CCCN(Cc2nc(-c3ccc(C(=O)OC)cc3)no2)C1 (stereo not drawn) | 2.56
O=C(NCc1cccnc1)C1CC(=O)N(C2CCCCC2)C1 (stereo not drawn) | -3.78
